{"source": "the supplement of paper PMC10338343", "note": "± gives the standard deviation. The full ranking holds about 6,600 sequences; the median of “pre-steady-state target cleavage rate” is about 0.07, and the highest 2% start at about 0.72. Only a part is listed here, and it is no random draw.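 Also: 1 nM active piRISC with 0.1 nM target library at 33 °C single turnover.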", "data": [{"test_system": "MIWI (PIWIL1) piRISC loaded with Kctd7 piRNA (30 nt)", "experiment": "pre-steady-state target cleavage rate (min^-1); MIWI and MILI are mouse PIWI proteins and EfPiwi is from a freshwater sponge; tags in brackets are library labels; higher = faster piRNA-guided slicing of the target", "details": "guide: Kctd7 piRNA 5'p-UGUUAAUCUCUCAGAGAAGGUGACAGUGAU; auxiliary factor: 500 nM mouse GTSF1", "how_it_was_run": "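At 33 °C in HEPES–potassium acetate buffer, a transcribed, DNA-blocked target RNA library […] was exposed for 0–8 or 0–960 min to 1 nM active affinity-purified piRISC carrying a single synthetic guide, with or without 500 nM GTSF1 partner protein. Uncleaved targets were sequenced and normalised to depth and to weakly complementary targets. With three trials pooled and k3 capped at 0.0001 min^-1, a burst-and-steady-state fit produced the pre-steady-state cleavage rate.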", "values": [{"sequence": "UAGUGACAGACCUUCUCUGAGAGAUAUUCA", "pre-steady-state target cleavage rate": "0.00856 ± 0.0053"}, {"sequence": "UUCACUGUCGACCUUCUCUGAGAGAUUAACA", "pre-steady-state target cleavage rate": "0.195 ± 0.023"}, {"sequence": "UAGUGAGUCACCUUGUCUGAGUGAUUAACA", "pre-steady-state target cleavage rate": "0.0224 ± 0.004"}, {"sequence": "UAGUGACACUCCUUCUCUGAGAGAUUAAGA", "pre-steady-state target cleavage rate": "0.0528 ± 0.011"}, {"sequence": "UUCACUGUCUCCUUCUCUGAGAGAUUUUGA", "pre-steady-state target cleavage rate": "0.0532 ± 0.018"}, {"sequence": "AUCACUGUCACCUUCUGUGAGAGAUAAACA", "pre-steady-state target cleavage rate": "0.226 ± 0.026"}, {"sequence": "UAGUGACUCACCUUCUCUGAGAGAUAAUGA", "pre-steady-state target cleavage rate": "0.0193 ± 0.007"}, {"sequence": "UUCACUGUCACCUUCACUGAGAGAUUAUCA", "pre-steady-state target cleavage rate": "0.279 ± 0.044"}, {"sequence": "UACACUGAUCACCUUCUCUGAGAGAUUAACA", "pre-steady-state target cleavage rate": "0.638 ± 0.05"}, {"sequence": "UAGUGACACACCUUCUCUGAGAGAUUAAGCA", "pre-steady-state target cleavage rate": "0.296 ± 0.049"}, {"sequence": "UAGUGAGUCACCAUCUCUGAGAGAAUAACA", "pre-steady-state target cleavage rate": "0.213 ± 0.03"}, {"sequence": "UAGACUGUCUCCUUCUCAGAGAGAUUAACA", "pre-steady-state target cleavage rate": "0.278 ± 0.021"}, {"sequence": "UAGAGACUCACCUUCUCUGAGAGAUUAAGA", "pre-steady-state target cleavage rate": "0.187 ± 0.024"}, {"sequence": "UAGUGUGUCACGUUCUCUGAGAGAUUAACA", "pre-steady-state target cleavage rate": "0.561 ± 0.028"}, {"sequence": "UAGUGACAGUCCUUCUCUUAGAGAUUAACA", "pre-steady-state target cleavage rate": "0.0123 ± 0.0049"}, {"sequence": "UAGUGACACAGCUUCACUGAGAGAUUAACA", "pre-steady-state target cleavage rate": "0.0887 ± 0.011"}, {"sequence": "UUCACUGUCACCAUCUCUGAGUGAUUAACA", "pre-steady-state target cleavage rate": "0.0308 ± 0.0054"}, {"sequence": "UAGUGACACACCUUCUGUGAGAGAUUAAGA", "pre-steady-state target cleavage rate": "0.0525 ± 0.012"}, {"sequence": "UAGUGACAGUCUUCUCUGAGAGAUUAACA", "pre-steady-state target cleavage rate": "0.0394 ± 0.0047"}, {"sequence": "AUCACUGUCACCUUCUCUCUGAGAUUAACA", "pre-steady-state target cleavage rate": "0.0402 ± 0.0095"}, {"sequence": "UAGUGAGUCACCUACUCUGUGAGAUUAACA", "pre-steady-state target cleavage rate": "0.161 ± 0.013"}, {"sequence": "AUGAGUGUCACCUUCUCUGAGAGAUUAACA", "pre-steady-state target cleavage rate": "0.706 ± 0.032"}, {"sequence": "UAGUGUGUCACCUUCUCUGAGAGUUAAACA", "pre-steady-state target cleavage rate": "0.208 ± 0.043"}, {"sequence": "UUCACUGUCACCAUCUCUGAGAGUUUAACA", "pre-steady-state target cleavage rate": "0.398 ± 0.06"}, {"sequence": "UAGUGACAGUGGAAGAGUCAGUGAUUAACA", "pre-steady-state target cleavage rate": "< 0.0001"}, {"sequence": "UAGUGACAGUCCUUCUCUGAGAGAUUUAACA", "pre-steady-state target cleavage rate": "0.018 ± 0.0034"}, {"sequence": "UAGUGUGUCACGUUCUCUGAGAGUUUAACA", "pre-steady-state target cleavage rate": "0.165 ± 0.022"}, {"sequence": "UAGUGAGUCACCUACUCUGACAGAUUAACA", "pre-steady-state target cleavage rate": "0.221 ± 0.028"}, {"sequence": "UAGUCUGUCACCUUCUCGAGAGAUUAACA", "pre-steady-state target cleavage rate": "0.0918 ± 0.014"}, {"sequence": "UACAGAGUCACCUUCUCUGAGAGAUUAACA", "pre-steady-state target cleavage rate": "0.476 ± 0.026"}, {"sequence": "UAGUGUGUCUCCUUCUCUGACAGAUUAACA", "pre-steady-state target cleavage rate": "0.386 ± 0.03"}, {"sequence": "AUCACUGUGACCUUCUCAGAGAGAUUAACA", "pre-steady-state target cleavage rate": "0.236 ± 0.012"}, {"sequence": "UAGACUGACACCUACUCUGAGAGAUUAACA", "pre-steady-state target cleavage rate": "0.521 ± 0.04"}, {"sequence": "UAGUGUGUACACCUUCUCUGAGAGAUUAACA", "pre-steady-state target cleavage rate": "0.569 ± 0.038"}, {"sequence": "UAGUGACUCACCUUCUCUGAGAGAUUAGCA", "pre-steady-state target cleavage rate": "0.293 ± 0.044"}, {"sequence": "UAGUGACUCACCUACUCUGAGAGAAUAACA", "pre-steady-state target cleavage rate": "0.0219 ± 0.0063"}, {"sequence": "UAGUGACAGACCUACUCUGAGAGUUUAACA", "pre-steady-state target cleavage rate": "0.011 ± 0.0036"}, {"sequence": "AUCACUGUCACCUUCUCUGACUGAUUAAGA", "pre-steady-state target cleavage rate": "0.00363 ± 0.0027"}, {"sequence": "AUCACUGUCACCAACUCUGAGAGAUUAUGA", "pre-steady-state target cleavage rate": "0.00999 ± 0.0036"}, {"sequence": "UAGUGUGUCUGCUUCUCUGAGAGAUUAUGA", "pre-steady-state target cleavage rate": "0.0055 ± 0.0027"}, {"sequence": "UACACUGUCACCUUCUGUGAGAGAAUAACA", "pre-steady-state target cleavage rate": "0.249 ± 0.048"}, {"sequence": "AUCACUCGUCACCUUCUCUGAGAGAUUAACA", "pre-steady-state target cleavage rate": "0.747 ± 0.043"}, {"sequence": "UAGUGAGUCACCUUCUCUGAGACUUUAACA", "pre-steady-state target cleavage rate": "0.0587 ± 0.013"}, {"sequence": "UAGUGUGUCACCUUCUCUGAGAGAUUACCA", "pre-steady-state target cleavage rate": "0.208 ± 0.029"}, {"sequence": "UAGUGACACACCUUCUCUGAGAGAUAAUGA", "pre-steady-state target cleavage rate": "0.00749 ± 0.0039"}, {"sequence": "UAGUGACACACCUUCUCUGAGAGUUUUACA", "pre-steady-state target cleavage rate": "0.0381 ± 0.015"}, {"sequence": "ACACUGUCACCUUCUCUGAGAGAUUAACA", "pre-steady-state target cleavage rate": "0.772 ± 0.044"}, {"sequence": "UAGUGACAGUGCUUCUCUGAGAGAUUACCA", "pre-steady-state target cleavage rate": "0.00538 ± 0.0028"}, {"sequence": "UUCACUGUCACGUUCUGUGAGAGAUUAACA", "pre-steady-state target cleavage rate": "0.506 ± 0.028"}, {"sequence": "UAGUCUGUCACACUUCUCUGAGAGAUUAACA", "pre-steady-state target cleavage rate": "0.51 ± 0.023"}, {"sequence": "AUCACUGUCACCUUCUCUGUCAGAUUUUGA", "pre-steady-state target cleavage rate": "0.018 ± 0.0065"}, {"sequence": "UAGUGUGUCACCUUCUCUCAGAGAUUUACA", "pre-steady-state target cleavage rate": "0.0502 ± 0.0088"}, {"sequence": "UUGACUGUGACCUUCUCUGAGAGAUUAACA", "pre-steady-state target cleavage rate": "0.662 ± 0.04"}, {"sequence": "UUCACUGUCACCUUCUCUGAGAGAUAUAACA", "pre-steady-state target cleavage rate": "0.304 ± 0.033"}, {"sequence": "UAGUGAGUCUGGUUCUCUGAGAGAUUAACA", "pre-steady-state target cleavage rate": "0.00515 ± 0.0021"}, {"sequence": "UAGUUUGUCACCUUCUCUGAGAGAUUAACA", "pre-steady-state target cleavage rate": "0.58 ± 0.024"}, {"sequence": "UAGUCUCUCAGCUUCUCUGAGAGAUUAACA", "pre-steady-state target cleavage rate": "0.00984 ± 0.0037"}, {"sequence": "UAGACUCAGACCUUCUCUGAGAGAUUAUGA", "pre-steady-state target cleavage rate": "0.0101 ± 0.0033"}, {"sequence": "UAGUGACAGACCUUCUCUCAGAGAUUUACA", "pre-steady-state target cleavage rate": "0.0078 ± 0.0039"}, {"sequence": "UUCACUCACACCUUCUCUGAGAGAUUUUGA", "pre-steady-state target cleavage rate": "0.128 ± 0.03"}, {"sequence": "UAGACUGUCACCUUCUCUGAGUGAUUAACA", "pre-steady-state target cleavage rate": "0.0193 ± 0.0028"}, {"sequence": "UAGUGACACACCUUCUCUGACAGAUAAACA", "pre-steady-state target cleavage rate": "0.0421 ± 0.012"}, {"sequence": "UAGUGAGUCACCUUGUCUGUGAGAUUAACA", "pre-steady-state target cleavage rate": "0.111 ± 0.0097"}, {"sequence": "AUCACUGUCAGCUUCUCUCAGAGAUUAACA", "pre-steady-state target cleavage rate": "0.0986 ± 0.0063"}, {"sequence": "UAGUGUGUCAACUUCUCUGAGAGAUUAACA", "pre-steady-state target cleavage rate": "0.546 ± 0.025"}, {"sequence": "UACUGUGUCACCUUCUCUGAGAGAUUUUGA", "pre-steady-state target cleavage rate": "0.0574 ± 0.0094"}, {"sequence": "UAGUGUGUCACCAUCUCUGAGAGAUUAUCA", "pre-steady-state target cleavage rate": "0.198 ± 0.026"}, {"sequence": "UAGUGACAGUGGAAGAGACUGAGAUAAAGA", "pre-steady-state target cleavage rate": "< 0.0001"}, {"sequence": "UACACUGUCACCUUCUCUUAGAGAUUAACA", "pre-steady-state target cleavage rate": "0.345 ± 0.02"}, {"sequence": "AUGUGUGUCACCUUCUCUGAGAGAUUAAGA", "pre-steady-state target cleavage rate": "0.295 ± 0.041"}, {"sequence": "UUCACUGUCACCUUCUCUGAGAGAUUUAGA", "pre-steady-state target cleavage rate": "0.112 ± 0.024"}, {"sequence": "UAGUGUGUCACCUUGUCUGAGAGAUUUUGA", "pre-steady-state target cleavage rate": "0.00982 ± 0.0057"}]}]}
